{"source": "paper PMC4336329", "about": "(PLoS ONE, 2015)", "note": "Screen size: about 310,000 compounds; about 2,200 (0.71%) showed an effect of 50% or more. The effect is printed as a negative number. The list shows a part of the results.", "data": [{"target": "human ether-à-go-go-related gene (hERG) potassium channel (human, UniProt Q12809)", "sequence (Q12809 whole entry, looked up)": "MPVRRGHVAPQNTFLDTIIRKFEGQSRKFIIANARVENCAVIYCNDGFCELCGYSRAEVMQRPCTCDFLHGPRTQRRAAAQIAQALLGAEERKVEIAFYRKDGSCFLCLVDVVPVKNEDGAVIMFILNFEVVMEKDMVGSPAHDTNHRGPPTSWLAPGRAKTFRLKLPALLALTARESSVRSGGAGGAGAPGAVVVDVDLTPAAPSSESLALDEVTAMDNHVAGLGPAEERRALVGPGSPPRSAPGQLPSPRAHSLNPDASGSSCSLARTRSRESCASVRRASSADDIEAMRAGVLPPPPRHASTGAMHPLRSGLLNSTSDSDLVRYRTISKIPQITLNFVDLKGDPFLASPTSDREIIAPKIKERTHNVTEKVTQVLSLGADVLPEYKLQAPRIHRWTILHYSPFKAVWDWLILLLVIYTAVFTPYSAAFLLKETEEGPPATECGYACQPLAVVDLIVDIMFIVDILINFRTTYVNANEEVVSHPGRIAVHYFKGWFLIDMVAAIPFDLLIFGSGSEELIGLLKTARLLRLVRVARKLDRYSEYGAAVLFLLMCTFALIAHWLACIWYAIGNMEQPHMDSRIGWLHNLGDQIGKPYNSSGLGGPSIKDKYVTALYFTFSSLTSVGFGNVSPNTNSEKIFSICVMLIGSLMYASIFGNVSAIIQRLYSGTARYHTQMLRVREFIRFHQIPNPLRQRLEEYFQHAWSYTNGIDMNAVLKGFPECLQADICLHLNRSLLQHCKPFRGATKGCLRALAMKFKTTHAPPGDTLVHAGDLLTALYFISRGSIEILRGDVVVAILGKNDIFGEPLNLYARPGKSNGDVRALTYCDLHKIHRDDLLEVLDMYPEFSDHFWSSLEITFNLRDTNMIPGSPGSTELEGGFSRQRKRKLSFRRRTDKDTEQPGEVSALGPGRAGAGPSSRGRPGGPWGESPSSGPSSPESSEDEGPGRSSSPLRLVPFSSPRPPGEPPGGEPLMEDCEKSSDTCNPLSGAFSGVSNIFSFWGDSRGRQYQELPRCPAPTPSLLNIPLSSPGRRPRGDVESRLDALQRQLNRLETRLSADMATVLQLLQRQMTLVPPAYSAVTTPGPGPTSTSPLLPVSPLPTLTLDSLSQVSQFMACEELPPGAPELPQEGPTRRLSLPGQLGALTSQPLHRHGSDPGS", "test": "primary screen, population patch clamp on CHO cells stably expressing hERG", "units": {"hERG current change (%, negative = inhibition) at 1uM": "%"}, "values": [{"compound": "CCN(C(=O)c1ccc(S(=O)(=O)N2CCCCC2)cc1)C1CCS(=O)(=O)C1", "note": "(stereo not shown)", "hERG current change (%, negative = inhibition) at 1uM": -6.73}, {"compound": "O=C(O)c1sccc1S(=O)(=O)c1ccccc1", "hERG current change (%, negative = inhibition) at 1uM": 2.01}, {"compound": "COc1ccccc1C(=O)O/N=C1/CCCc2c1ccc(OC)c2[N+](=O)[O-]", "hERG current change (%, negative = inhibition) at 1uM": 6.85}, {"compound": "COc1cc(NC(=O)c2ccccc2[N+](=O)[O-])c(C(=O)O)cc1OC", "hERG current change (%, negative = inhibition) at 1uM": -3.03}, {"compound": "O=S(=O)(c1ccccc1)N1CCC(=NO)CC1", "hERG current change (%, negative = inhibition) at 1uM": 16.1}, {"compound": "CS(=O)(=O)N(CCc1ccccc1)CC(=O)NCc1ccccc1", "hERG current change (%, negative = inhibition) at 1uM": 17.2}, {"compound": "CC(=O)OCC(=O)Nc1ccccc1OC(F)F", "hERG current change (%, negative = inhibition) at 1uM": 16.9}, {"compound": "COc1cc(OC)cc(C(=O)OCC(=O)NCc2ccco2)c1", "hERG current change (%, negative = inhibition) at 1uM": 5.78}, {"compound": "CCc1ccc(-c2nc(SCC(=O)N(CC)C3CCS(=O)(=O)C3)n[nH]2)cc1", "note": "(stereo not shown)", "hERG current change (%, negative = inhibition) at 1uM": 3.17}, {"compound": "COc1cccc(CC(=O)Nc2cc(C(F)(F)F)ccc2N2CCCC2)c1", "hERG current change (%, negative = inhibition) at 1uM": 6}, {"compound": "Cc1cccc(S(=O)(=O)Nc2nc3ccccc3nc2OC(C)C)c1", "hERG current change (%, negative = inhibition) at 1uM": 19.6}, {"compound": "CN1CCN(S(=O)(=O)c2ccc(Oc3ccc(F)c(Cl)c3)nc2)CC1", "hERG current change (%, negative = inhibition) at 1uM": 8.49}, {"compound": "CCn1cc(C(=O)c2cccs2)c2ccccc21", "hERG current change (%, negative = inhibition) at 1uM": 19}, {"compound": "COc1ccc(NC(=S)Nc2ccc3nccnc3c2)cc1", "hERG current change (%, negative = inhibition) at 1uM": 15.3}, {"compound": "Cc1ccc(-c2nnc(SCC(=O)NC(=O)Nc3ccc(C)cc3C)n2N)cc1", "hERG current change (%, negative = inhibition) at 1uM": 7.21}, {"compound": "COc1ccc2c(=O)c(-c3ccccc3C)c(C)oc2c1", "hERG current change (%, negative = inhibition) at 1uM": -0.575}, {"compound": "O=C(COC(=O)c1ccc(O)cc1O)Nc1ccc(Cl)cn1", "hERG current change (%, negative = inhibition) at 1uM": 5.42}, {"compound": "Cc1cccc(-n2ncc3c(NCc4cccnc4)ncnc32)c1", "hERG current change (%, negative = inhibition) at 1uM": -7.8}, {"compound": "CC(NC(=O)CSCc1ccc(Br)cc1)c1ccccc1", "note": "(stereo not shown)", "hERG current change (%, negative = inhibition) at 1uM": 9.08}, {"compound": "O=C(O)CSCC(=O)NCc1cccc(C(F)(F)F)c1", "hERG current change (%, negative = inhibition) at 1uM": 8.33}, {"compound": "COc1cccc(C(c2sc3nc(C)nn3c2O)N2CCC3(CC2)OCCO3)c1", "note": "(stereo not shown)", "hERG current change (%, negative = inhibition) at 1uM": 6.66}, {"compound": "CC1(C)C(c2ccccc2)=[N+]([O-])CN1O", "hERG current change (%, negative = inhibition) at 1uM": -3.59}, {"compound": "CCN(CC)CCCNC(=O)Cc1c(C(=O)O)n(C)c2ccccc12", "hERG current change (%, negative = inhibition) at 1uM": 11.1}, {"compound": "COc1ccc(S(=O)(=O)Nc2c(C)nc3nc(C)[nH]n3c2=O)cc1", "hERG current change (%, negative = inhibition) at 1uM": 13.5}, {"compound": "CC(NC(=O)COC(=O)C1CCN(S(=O)(=O)c2ccccc2C(F)(F)F)CC1)c1ccccc1", "note": "(stereo not shown)", "hERG current change (%, negative = inhibition) at 1uM": 4.12}, {"compound": "O=C(NN=C1C2CC3CC(C2)CC1C3)c1ccccc1O", "hERG current change (%, negative = inhibition) at 1uM": 3.73}, {"compound": "O=C(NN1CCOCC1)c1cccc(COc2cccc(Br)c2)c1", "hERG current change (%, negative = inhibition) at 1uM": 6.41}, {"compound": "O=C(CSc1n[nH]c(=O)[nH]c1=O)N1CCCCCC1", "hERG current change (%, negative = inhibition) at 1uM": 4.37}, {"compound": "CS(=O)(=O)Nc1ccccc1C(=O)Nc1cc(Cl)cc(Cl)c1", "hERG current change (%, negative = inhibition) at 1uM": -4.85}, {"compound": "Cc1ccc(NC(=O)CN(C)CC(=O)Nc2ccccc2C(=O)Nc2ccccc2)cc1", "hERG current change (%, negative = inhibition) at 1uM": 8.74}, {"compound": "Cl.c1ccc(CN2CCN(c3nc(N4CCOCC4)c4ccccc4n3)CC2)cc1", "hERG current change (%, negative = inhibition) at 1uM": -16.5}, {"compound": "CCOC(=O)C1CCCN(C(=O)c2ccc(C(=O)c3ccccc3)cc2)C1", "note": "(stereo not shown)", "hERG current change (%, negative = inhibition) at 1uM": -2.45}, {"compound": "Cc1cc(N2CCCC2)nc2c(C)cccc12", "hERG current change (%, negative = inhibition) at 1uM": 4.82}, {"compound": "CC(C)(C)c1ccc(-c2nnc(N)o2)cc1", "hERG current change (%, negative = inhibition) at 1uM": 20.2}, {"compound": "COc1cc(C2OC(c3cc(OC)c(OC)c(OC)c3)C(C)C2C)cc(OC)c1OC", "note": "(stereo not shown)", "hERG current change (%, negative = inhibition) at 1uM": 1.62}, {"compound": "N#Cc1c(N)oc(-c2ccco2)c1-c1ccco1", "hERG current change (%, negative = inhibition) at 1uM": 7.05}, {"compound": "CCCc1nn(C(=O)c2ccccc2)c2c1C(=O)CC(C)(C)C2", "hERG current change (%, negative = inhibition) at 1uM": 12.2}, {"compound": "O=C(CC1NC2CCCCC2NC1=O)Nc1ccc2c(c1)OCO2", "note": "(stereo not shown)", "hERG current change (%, negative = inhibition) at 1uM": 4.97}, {"compound": "O=C(O)CCN1C(=O)c2ccc(Oc3ccc4c(c3)C(=O)N(CCC(=O)O)C4=O)cc2C1=O", "hERG current change (%, negative = inhibition) at 1uM": 4.91}, {"compound": "Cc1cc(=O)oc2c3c(cc(OCC(=O)N[C@@H](CC(C)C)C(=O)O)c12)OC(C)(C)CC3", "hERG current change (%, negative = inhibition) at 1uM": 10.5}, {"compound": "COc1ccc(C(=O)Nc2ccccc2N2CCCC2)cc1S(=O)(=O)N1CCOCC1", "hERG current change (%, negative = inhibition) at 1uM": 0.389}, {"compound": "CCn1ncc(/C=N/N=C2\\CCC3C4CCc5cc(O)ccc5C4CCC23C)c1C", "note": "(stereo not shown)", "hERG current change (%, negative = inhibition) at 1uM": 9.73}, {"compound": "COc1ccc(CC(=O)OCC(=O)NCc2ccco2)cc1", "hERG current change (%, negative = inhibition) at 1uM": 12.3}, {"compound": "COc1ccc(NC(=O)c2ccc(S(=O)(=O)N3CCOCC3)cc2)c(OC)c1", "hERG current change (%, negative = inhibition) at 1uM": 14.9}, {"compound": "COc1ccc(CCC(=O)N2CCCC(Nc3ccc(OC)cc3)C2)cc1", "note": "(stereo not shown)", "hERG current change (%, negative = inhibition) at 1uM": 5.24}, {"compound": "Cc1ccccc1NC(=O)NC1CCCCC1C", "note": "(stereo not shown)", "hERG current change (%, negative = inhibition) at 1uM": 5.3}, {"compound": "COc1ccc(NC(=O)CS(=O)CC(=O)NC2CCCc3ccccc32)cc1", "note": "(stereo not shown)", "hERG current change (%, negative = inhibition) at 1uM": -1.8}, {"compound": "CN(CC(O)COC(c1ccccc1)c1ccccc1)C1CCCCC1", "note": "(stereo not shown)", "hERG current change (%, negative = inhibition) at 1uM": -38.1}, {"compound": "Cc1ccc(CN2CCN(Cc3cnc(C)[nH]3)CC2CCO)cc1", "note": "(stereo not shown)", "hERG current change (%, negative = inhibition) at 1uM": 5.97}, {"compound": "Oc1c(Br)cc(Br)cc1C=Nc1cccc2ncccc12", "hERG current change (%, negative = inhibition) at 1uM": 15.7}, {"compound": "COc1ccc(NC(=O)c2oc3ccccc3c2NC(=O)c2ccco2)c(OC)c1", "hERG current change (%, negative = inhibition) at 1uM": 4.57}, {"compound": "CCOc1ccc(C(=O)Nc2cc(C)c3c(=O)oc4ccccc4c3n2)cc1", "hERG current change (%, negative = inhibition) at 1uM": 10.1}, {"compound": "CCn1c(SCC(=O)N/N=C/c2cccs2)nc2ccccc21", "hERG current change (%, negative = inhibition) at 1uM": -5.66}, {"compound": "CCOC(=O)c1cccc(NC(=O)C2(S(=O)(=O)c3ccc(Cl)cc3)CC2)c1", "hERG current change (%, negative = inhibition) at 1uM": 6.06}, {"compound": "Cn1c(NCc2c[nH]c3ccccc23)nc2ccccc21", "hERG current change (%, negative = inhibition) at 1uM": -3.39}, {"compound": "c1ccc(-c2nc(NCCCn3ccnc3)c3ccccc3n2)cc1", "hERG current change (%, negative = inhibition) at 1uM": -30.2}, {"compound": "C=CCn1c(O)c(C(C)=Nc2ccc(N(C)C)cc2)c(=O)[nH]c1=O", "hERG current change (%, negative = inhibition) at 1uM": 6.01}, {"compound": "CC1CCN(c2ccc(-c3ccc(NC(=O)c4ccco4)cc3)nn2)CC1", "hERG current change (%, negative = inhibition) at 1uM": 16.3}]}]}
